Assay results taken from paper PMC10726135.
This is one part of the list. At the low end of the ranking the order means little. The protein was read in a cell extract, so binding may be indirect.

target: T1, HNF4alpha8 (COS-7 nuclear extract) (UniProt P41235-5); assay: protein-binding microarray; conditions: COS-7 nuclear extract on double-stranded Agilent 4x180k PBM; binding buffer, salt, pH and temperature not given; high values mean tight binding; double strand, one strand shown; sequences stand for … in …GCCTAGGGAGATTAGAGTATCGGTCGA
T1 sequence: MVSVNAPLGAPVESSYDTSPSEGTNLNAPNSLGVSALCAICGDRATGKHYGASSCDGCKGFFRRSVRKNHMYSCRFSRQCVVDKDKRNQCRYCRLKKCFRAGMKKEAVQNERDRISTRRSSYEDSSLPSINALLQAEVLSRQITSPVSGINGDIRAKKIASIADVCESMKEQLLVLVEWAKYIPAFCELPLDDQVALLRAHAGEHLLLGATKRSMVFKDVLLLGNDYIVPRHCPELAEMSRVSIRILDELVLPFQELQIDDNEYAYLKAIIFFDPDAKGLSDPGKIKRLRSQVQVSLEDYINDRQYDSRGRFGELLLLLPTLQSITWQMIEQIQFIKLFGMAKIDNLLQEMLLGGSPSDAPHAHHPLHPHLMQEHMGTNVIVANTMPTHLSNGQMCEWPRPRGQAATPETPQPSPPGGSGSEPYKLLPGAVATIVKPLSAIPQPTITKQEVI

Sequence	binding signal (log2 normalized intensity)
ACATACTTGGAGACAGTCACTCCCACCCTT	2.5
GGTGACCGGACACAAAAGCTGCTGCCAAGC	-1.21
CTTATCTTTGACCTTACCAGCCCACTCTTA	1.99
GGGTCAGAACCTGCCCATGACCTTTGGACT	10.8
CTGCTAAACCAACACCAGCAACCGCCTACC	-1.31
GGATTCTGGCTAAACCAGCCTAACAGGATT	-1.37
ATTTTTCCCTTTGATATTTATCAAGATGAA	0.842
CTTGTTTTGGGGGTTGGTATTACAAAGCAA	0.688
GACCTGACACCCGCTGGCGCCATCCAAAGG	-1.21
GAGTTAACTATTGAGACTTTGGGGTTTTAT	0.851
CAGCTCTCTCCCTTATCTGAATTCCAGCAT	-1.19
GATCAGGGCCCCTTCCTGGGGGAGTTTCCT	-1.35
AGGAGTCCACTGTGTTCTTGTTTGCTAAGT	1.85
TCCCAGCCCCTAGCCCTAAGCAGGCACATT	2.64
TTCTGATTTGATAAGATGTGTAAAACACAA	0.123
GGATGGCCATTGTTCATACTGCAGCTCTGC	-1.29
TTGGTCTGCTGAGTCTCATGATTAGATTGA	1.1
AAGGCTGTTTGCACCGTGTGCTTTGTAGCA	0.24
ACTTTGACCTAGAAGCCAGGGACCAGGAAG	-0.796
TTTGGGCATACAAAACAACCACTCTTATCA	-1.41
ATCAGAGATGGATTACATGGGAGATAGAGC	-1.23
GATAAGGGCCACAGATGGCCTCACTCGGTG	-1.21
AATTTGTCTAGCGCAAATGATCAAAGGTTG	4.39
TTTCAGTGCCCTTTGAGATTTGCATTCATG	2.52

Sequence	binding signal (log2 normalized intensity)
AGAGGGCCTCTAGCCCAATATTTGCTTACC	-1.37
TCTCTGTAACATTCCTAGATATCAGGAAGG	0.0741
CACCCAGAACTTTGACCGTTTGATTATTTG	2.96
CCAGGTTGCATCAGCTGGGCTCGGCGCTCC	-1.25
CCTAAAAGCTTTCTTGGGCAAGAAAGGGGT	-1.2
TCCAAAACATTGTAGAATTATCCAGATCAA	-0.933
ATAAGATGAAGCTCTCAGAATAGCAAATCT	-1.44
TCCCTCATATAATTTACATAACAGGTTTGT	1.72
TCTTTTCTAAGATATTTGCATAGGCATTGT	0.77
TGTTTGCAGATGGTTTCATCTGGTTTCTGT	1.8
ATTGAGGCCAGCAAAGGGCAAGTAAATGTG	0.992
CTGACCTTTACCCATTCCTTAGTGCATGGG	3.87
ATACACCTTGCCTGGCTACCTCTTAGCTAC	-1.3
GACCTCAATGTGCTCATCCATAAAATGGGG	0.132
CTATCAGTTGAGATTTATTCCCAGGTTCCA	0.833
CCAGATGTCTGGCTAAGACCTTTAGTTAGC	1.54
CCCTGGACTCAGCTCCCATAGAGTCCACCA	3.15
TAACCTTTGGCTGGTAGAGCAGGTTTCAGA	1.98
GGGGACTTCACATGCCTTTGTAGTTACCCA	0.846
ATATCATTAACCTATTATTTTATAGAAAAG	1.22
CTGCGTTTCTCCTCTCTGGGCTTCCATTGT	1.03
CTTCATGGAGAGAATTCCCATCCCACTAGG	-1.42
CCTAAGCCCTGCCACCCCCGTTAATTTCTA	2.98
AAAAAAAAAAAAGAACACAGTGTAGAAGGC	-1.21

Sequence	binding signal (log2 normalized intensity)
AGATAATGGGGGAGCCACTGCAGCTTTCTG	-1.36
AAAGATCAGTGTACTTAAAAATGCCTTTCA	-1.29
AGGAGGGAGGAGCATTTCACAGAAATTTTT	-1.33
CCTCCCCCCAGTTCCCTGGGTCGCCAAGCC	3.7
GGGAGAGGAGTTTGTTCACCCACCAGAGGG	-1.17
GGTCCTCTGCTGCCCTCTAGGGTTGCCCAG	2.11
AGTCCCTGTCCCTTCTTGGCAAGTTAATGT	1.57
TCCTCTCCCAGCCCCTAGCCCTAAGCAGGC	3.03
TCTTCTTAGCCTTTGAACCCCACACCTCCC	5.21
AAATCCCAAGCAGTGATATTCTCTCGTCAC	-0.989
CCACAGAAAAGGCAGCAGCTTGGAATGTCA	-1.49
CAATAAGGACTTTGGACCGTCTTGTGGATC	6.72
ATTGAGAAAGATTAAGAGGCTACAACCAGA	-1.2
AGACATCACCTGCTCATTGACCCTTAGGCC	4.59
ACCTTTGCCTTCTTGACATCTCTCTCTGCA	-0.0607
TGACAAAATAACGAAGGCATTCTTAACAAA	-1.31
TACAAAGGTGACTTGCCCAGACACACCTGC	-1.31
ACAATTTGAGGGGTCAAGAAGACCTGGGCT	-0.805
TGGATGGATCCGCAGCCAGGGCTGTTTTCT	-1.06
CTTATACTTGAGGTATGATGCATCCTGAGG	1.06
TTGATGCCTGTTGCTCAGAATTACTGACTC	0.373
GAACTGAGTTTAGAATTTGAACTATGGTCA	5.62
GCTCTGGGCTAGTCCCTGAGTATTATCTTT	0.55
CATGGGCTGTCACCTTTACCCCCACTCTCC	4.93
